About 100 (0.036%) of roughly 280,000 compounds were called active. The shares of active, inactive and inconclusive entries below differ from those in the screen. The call rests on the fitted dose curve; in most records, active means well fitted inhibition curve with a large enough effect in the signal ratio, with a control signal flat (not every such curve was filed as active); inconclusive means small, poorly fitted or top-dose-only effect, or effect the other way, or a change in a side signal; inactive means no such curve, though single readings can be large or run the other way; the % refers to the signal ratio. Potencies of inconclusive entries are doubtful fits and often do not repeat. A note “side channel” means that the fit belongs to a control or component signal, not to the main read-out.
target: Muscleblind-like protein 1 (Homo sapiens) (UniProt Q9NR56); experiment: qHTS Assay for Inhibitors of MBNL1-poly(CUG) RNA binding; conditions: TR-FRET MBNL1-His/biotin-(CUG)12 binding, 665/545 ratio; activity change, negative = inhibition: at 57.5 µM (top of the series)
Chain of UniProt Q9NR56 (Q9NR56 whole entry, looked up): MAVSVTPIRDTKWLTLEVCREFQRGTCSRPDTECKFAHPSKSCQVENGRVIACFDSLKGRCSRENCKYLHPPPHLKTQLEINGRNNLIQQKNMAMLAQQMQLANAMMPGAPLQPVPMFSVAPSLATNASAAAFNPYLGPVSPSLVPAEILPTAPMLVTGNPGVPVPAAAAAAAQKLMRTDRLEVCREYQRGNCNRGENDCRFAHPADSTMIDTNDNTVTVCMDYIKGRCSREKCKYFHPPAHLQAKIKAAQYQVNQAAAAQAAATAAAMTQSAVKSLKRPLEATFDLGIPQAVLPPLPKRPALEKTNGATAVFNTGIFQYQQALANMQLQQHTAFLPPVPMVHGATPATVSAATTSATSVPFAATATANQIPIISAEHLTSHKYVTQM
Procedure, shortened: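 TR-FRET readout: Ex 340 nm, 665/545 nm emission ratio, normalized to buffer-only (basal) and MBNL1-(CUG)12 controls. Complex of MBNL1-His with Biotin-(CUG)12, compounds 92 nM–58 uM, incubated 60 min at room temperature.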
On the % scale 0 is the no-effect control and ±100 the full control effect; potency means the concentration at half of the fitted maximal effect; tags describe the fitted curve by direction and shape or compound fluorescence and quenching.

Row | Structure (SMILES) | Potency | activity change, negative = inhibition
1 | O=C1NCCCC1C(=O)N/N=C/c1ccc([N+](=O)[O-])cc1 (stereo unspecified) | inconclusive: 12.6 µM [quencher, side channel, partial curve] | –
2 | O=[N+]([O-])c1cccc(C2=NCCC(c3ccccc3)O2)c1 (stereo unspecified) | inconclusive: 17.8 µM [quencher, side channel, partial curve] | –
3 | O=c1c(O[C@@H]2O[C@H](CO)[C@H](O)[C@H](O)[C@H]2O)c(-c2ccc(O)c(O)c2)oc2cc(O)cc(O)c12 | inconclusive: 28.2 µM [quencher, side channel, partial curve] | –
4 | COc1ccc(Br)cc1S(=O)(=O)N1CC(C)OC(C)C1 (stereo unspecified) | inconclusive: 5.01 µM [quencher, side channel, full curve] | –
5 | COc1ccc(/C=C2\SC(=O)N(CC(=O)NN3CCN(C)CC3)C2=O)cc1OC | inconclusive: 14.1 µM [quencher, side channel, partial curve] | –
6 | Cc1cc([N+](=O)[O-])ccc1NC(=O)/C=C/c1cccs1 | inconclusive: 28.2 µM [quencher, side channel, partial curve] | –
7 | CCSC1=NCCN1S(=O)(=O)c1ccccc1 | inconclusive: 0.562 µM [inhibitor, full curve, poor fit] | –
8 | COc1cc(NC(=O)CCCNC(=O)Cn2cnc3sc4c(c3c2=O)CCCC4)cc(OC)c1OC | inconclusive: 39.8 µM [fluorescent, side channel, single point] | –
9 | NC(=O)[C@@H]1CCCNc2c(I)cc([N+](=O)[O-])cc2C(=O)N[C@@H](CO)C(=O)N[C@@H](Cc2ccc(O)cc2)C(=O)N1 | inconclusive: 10 µM [quencher, side channel, partial curve] | –
10 | Cc1ccc(-c2cc(C(F)F)nc(NCc3cccnc3)n2)cc1 | – | inactive: -2.04%
11 | O=C(c1ccccc1[N+](=O)[O-])N1CCCC(C(=O)N2CCCCCC2)C1 (stereo unspecified) | inconclusive: 28.2 µM [quencher, side channel, single point] | –
12 | Cn1c(CNC2CCCCC2)c(C#N)c2ccccc21 | – | inactive: 11%
13 | Cc1ccc(C(=O)NCc2ccco2)cc1Br | – | inactive: -6.12%
14 | Cn1c(N)c(-c2ccccc2)c2ccc([N+](=O)[O-])cc2c1=O | inconclusive: 7.08 µM [quencher, side channel, partial curve] | –
15 | N=c1c(C(=O)NC2CCCCC2)cc2c(=O)n3ccccc3nc2n1CC1CCCO1 (stereo unspecified) | inconclusive: 14.1 µM [quencher, side channel, partial curve] | –
16 | O=S(=O)(c1ccc(Cl)nc1)N1CCc2ccccc21 | – | inactive: -2.71%
17 | Cc1ccccc1NC1=C(Cl)C(=O)OC1OC(=O)c1ccco1 (stereo unspecified) | – | inactive: -9.87%
18 | CC1CCCCN1C(=O)Cn1cnc2cc([N+](=O)[O-])ccc2c1=O (stereo unspecified) | inconclusive: 11.2 µM [quencher, side channel, partial curve] | –
19 | COC(=O)c1sccc1-c1ccc(C(=O)Nc2ccccc2)o1 | – | inactive: 24.2%
20 | COc1ccc(C(=O)CSc2cc(C)[nH]c(=O)n2)cc1 | inconclusive: 17.8 µM [quencher, side channel, partial curve] | –
21 | COc1ccc(N2C(=O)C3C(C2=O)C(C(=O)c2ccccc2)N2CCCC32)cc1 (stereo unspecified) | inconclusive: 39.8 µM [quencher, side channel, single point] | –

Row | Structure (SMILES) | Potency | activity change, negative = inhibition
22 | Cn1c(=N)c(S(=O)(=O)c2ccccc2)cc2c(=O)n3ccccc3nc21 | inconclusive: 7.08 µM [quencher, side channel, full curve] | –
23 | O=C(NCCN1CCOCC1)c1cc2cc([N+](=O)[O-])ccc2s1 | inconclusive: 12.6 µM [quencher, partial curve] | –
24 | COc1ccc(/C=N/n2c(N)c(S(=O)(=O)c3cccs3)c3nc4ccccc4nc32)cc1OC | – | inactive: 0.19%
25 | CC(C)Cc1nnc(NC(=O)CCC(=O)Nc2ccccc2F)s1 | – | inactive: -7.87%
26 | CCOC(=O)c1c(NC(=O)CN2C(=O)NC3(CCC(C)CC3)C2=O)sc(C)c1-c1ccc(C)cc1 (stereo unspecified) | inconclusive: 0.112 µM [fluorescent, side channel, full curve] | –
27 | Cn1c(SCc2ccccc2)nc2ccsc2c1=O | – | inactive: 5.94%
28 | Cc1cccnc1-n1c(CCN2C(=O)c3ccccc3C2=O)nc2ccccc2c1=O | inconclusive: 20 µM [quencher, side channel, partial curve] | –
29 | O=C(O)c1ccc(CNC(=O)c2ccccc2NC(=O)c2cccc([N+](=O)[O-])c2)cc1 | inconclusive: 28.2 µM [quencher, single point] | –
30 | O=C(CSc1ccccn1)N/N=C/c1cccc([N+](=O)[O-])c1 | inconclusive: 3.16 µM [quencher, side channel, partial curve] | –
31 | CC1CCCN(c2ncnc3c2cnn3-c2ccc(Cl)cc2)C1 (stereo unspecified) | – | inactive: -4.43%
32 | NC(=S)N/N=C/c1c[nH]c2ccccc12 | inconclusive: 22.4 µM [quencher, side channel, partial curve] | –
33 | O=C(N/N=C/c1cccs1)/C(=C/c1ccccc1)NC(=O)c1ccccc1 | inconclusive: 3.98 µM [quencher, side channel, single point] | –
34 | COc1ccc(-n2c(C(C)(C)C)csc2=Nc2c(C)n(C)n(-c3ccccc3)c2=O)cc1 | inconclusive: 2.51 µM [quencher, side channel, partial curve] | –
35 | Cc1ccc(/C=C/C(=O)c2ccc(N3CCOCC3)cc2)s1 | inconclusive: 25.1 µM [quencher, side channel, partial curve] | –
36 | OCCC1CN(CCCn2cccn2)CCN1C1CCCCC1 (stereo unspecified) | – | inactive: -11.4%
37 | O=C(N/N=C/c1cccs1)c1cccc(NC(=O)c2ccccc2Cl)c1 | inconclusive: 14.1 µM [quencher, side channel, partial curve] | –
38 | CN(C(=O)COC(=O)c1ccc([N+](=O)[O-])cc1)c1ccccc1 | inconclusive: 8.91 µM [quencher, side channel, partial curve] | –
39 | O=C(CN1CCN(Cc2ccccc2)CC1)N/N=C/c1cccs1 | inconclusive: 11.2 µM [quencher, side channel, partial curve] | –
40 | Cc1oc(-c2ccccc2Cl)nc1CS(=O)(=O)CC(=O)NCCN1CCOCC1 | – | inactive: 7.2%
41 | O=C(Nc1cccc(NC(=O)c2ccccc2Cl)c1)c1cccs1 | – | inactive: -7.47%
42 | CN1C(=O)C(CC(=O)O)S/C1=N\N=C\c1ccc(O)cc1O (stereo unspecified) | inconclusive: 39.8 µM [quencher, side channel, partial curve] | –

Row | Structure (SMILES) | Potency | activity change, negative = inhibition
43 | O=C(CCS(=O)(=O)c1cccc2nonc12)Nc1ccc(Br)cc1 | inconclusive: 2.51 µM [quencher, side channel, full curve] | –
44 | CCCNC(=O)C1CC(c2ccc(C(F)(F)F)cc2)=NO1 (stereo unspecified) | – | inactive: -4.35%
45 | Cc1ccc(C(=O)NCCSCc2ccccc2)cc1[N+](=O)[O-] | inconclusive: 28.2 µM [quencher, side channel, single point] | –
46 | Cc1cc2nccc(-c3ccc(OCCCF)cc3)n2n1 | inconclusive: 12.6 µM [quencher, side channel, partial curve] | –
47 | Cc1nn(-c2ccccc2)c2c1C(c1ccc([N+](=O)[O-])cc1)C(C#N)=C(N)O2 (stereo unspecified) | inconclusive: 15.8 µM [quencher, side channel, partial curve] | –
48 | CCOc1ccccc1N1CCN(C(=O)CCCN2C(=O)c3cccc4cccc(c34)C2=O)CC1 | inconclusive: 15.8 µM [quencher, side channel, partial curve] | –
49 | CCC(CC)n1[nH]c(=O)cc1N | inconclusive: 39.8 µM [quencher, side channel, single point] | –
50 | COc1ccc2[nH]c(C(=O)O)c(NC(=O)c3ccccc3[N+](=O)[O-])c2c1 | inconclusive: 31.6 µM [quencher, side channel, single point] | –
51 | O=C(Nc1cccc(-c2cn3cccnc3n2)c1)c1cccs1 | inconclusive: 15.8 µM [quencher, side channel, partial curve] | –
52 | Cc1ccc(C2C(C(=O)c3cc4ccccc4o3)=C(O)C(=O)N2CCN2CCOCC2)cc1 (stereo unspecified) | – | inactive: 127%
53 | O=C(CCN1C(=O)/C(=C/c2ccc(F)cc2)SC1=S)NCCCn1ccnc1 | inconclusive: 12.6 µM [quencher, side channel, partial curve] | –
54 | Cc1cc(O)c(-c2cc(C(=O)NCc3ccc4c(c3)OCO4)[nH]n2)cc1C | inconclusive: 8.91 µM [quencher, side channel, single point] | –
55 | CC(=O)Nc1cccc(-c2nc3ccc(NC(C)=O)cc3s2)c1 | inconclusive: 11.2 µM [quencher, side channel, partial curve] | –
56 | CCN1C(=O)/C(=c2\sc3nc(=O)c(Cc4ccccc4)nn3c2=O)c2ccccc21 | – | inactive: -3.29%
57 | COc1ccc(C2=NS(=O)(=O)N(C)C(C(=O)Nc3ccc4c(c3)OCO4)=C2)cc1 | inconclusive: 25.1 µM [quencher, side channel, partial curve] | –
58 | CCN(CC)C(=O)c1cc2c(=O)c3cc(F)ccc3oc2nc1C | inconclusive: 15.8 µM [quencher, partial curve] | –
59 | OCCNc1c2ccccc2nc2c(F)c(F)c(F)c(F)c12 | – | inactive: 18.8%
60 | O=C1c2cccc3cccc(c23)C(=O)N1CCN1CCN(CC(O)COc2ccccc2)CC1 (stereo unspecified) | inconclusive: 3.16 µM [quencher, side channel, full curve] | –
61 | Cc1ccc(-c2csc(NC(=O)Cn3[nH]c(=O)c4ccccc4c3=O)n2)cc1 | inconclusive: 7.08 µM [inhibitor, full curve] | –

— PubChem BioAssay AID2675 (National Center for Advancing Translational Sciences (NCATS), 2010)
